Results from the supplement of paper PMC11417369.
± gives the standard deviation of the averaged measurements. This is one part of the list.

Each sequence was assayed on PfAP2-LT AP2 domain (GST-tagged) (assay: gcPBM binding intensity (ln(normalized median fluorescence intensity)); higher = stronger DNA binding).
Procedure, shortened: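 Alexa488 anti-GST antibody, scanned at 488 nm, detected GST-tagged P. falciparum DNA-binding domains that had been expressed in E. coli and incubated for 1 h on an Agilent 4 × 180k array. The array carried primer-extended double-stranded 36-bp intergenic genomic probes and negative controls. Binding intensity is the highest Masliner-normalised natural-log median intensity across replicate spots of either orientation of each probe.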

Sequence | gcPBM binding intensity (ln)
AAATAAAAACCATATCGTACAAAAATTTTTGTATTT [XGTACX_site7497] | 8.86 ± 0.43
ATATATATATATATATGTACTTAAAAATTTGTTTTG [XGTACX_site1514] | 9.725 ± 0.05
AAGTCAATTTTTTTTTTTTTTTTTTAACTTATTAAT [TGCATGCA_negctrl_site14] | 8.43 ± 0.45
GATCACTGAATAAAGGCACACATCTGACTAATTTTT [CACACA_site66] | 8.98 ± 0.42
TATACCTATAAATACACACACATATATAAATATGTA [CACACA_site6625] | 9.27 ± 0.31
TCCTTAAAAATCTAAAAAGAAAAAAACATATATTTT [GTGCAC_negctrl_site123] | 8.16 ± 0.45
ATTATTATATATATAACACACATAATTATATACTTA [CACACA_site1563] | 8.82 ± 0.49
TGAATAAATATATATACACACCCATATATATATATA [CACACA_site8833] | 9.62 ± 0.42
TTAAAAAGTGCGTAGTGTACTAATATAAATAATACA [XGTACX_site2922] | 8.83 ± 0.45
AATGTATATAATATTAATATGTAAATATATAATCAA [CACACA_negctrl_site1683] | 8.72 ± 0.39
AACATATACCCAGGTACATGCAAATATATATATTAT [TGCATGCA_site878] | 9.08 ± 0.37
TTTAAAAATTAATTCTGTACACATTTTTATTTTATT [XGTACX_site8] | 8.71 ± 0.55
TTCTTTCTTCAAAAGTGTACCAAATGTTAGAAAGGT [XGTACX_site4353] | 8.71 ± 0.29
ATATATATATATATGTGTACACAACAAAATAAAAAA [XGTACX_site7378] | 9.19 ± 0.42
AAAAAAATAACAAAATGTATACAATATAACAAAAAT [GTGCAC_negctrl_site512] | 9.05 ± 0.51
AGTATAAATAAATCATAAACATATATATATATATAT [GTGCAC_negctrl_site356] | 9.67 ± 0.14
ATATATACATATAACACACACATATATATATATATA [CACACA_site2575] | 9.82 ± 0.15
ATATTTAAATCGAAGGTGCGTATTTCCTTTTTTTTT [GTGCAC_site9632] | 8.82 ± 0.49
CTCATCCTTACATACACACACATATATATATATATA [CACACA_site103] | 9.93
ATTCATTTCTATTTTACACACAATAAGTAACTTAAT [CACACA_site2850] | 9.04 ± 0.41
TTTATTTATTATTAAAGTACTAAATCATATTATTAT [XGTACX_site992] | 8.4 ± 0.41
TATTTATATATTATGTGTCCACATGTAAGCTATCTT [XGTACX_site3887] | 8.8 ± 0.45

Sequence | gcPBM binding intensity (ln)
TTTTCTTTTTTCTGTTGTACTAAAAATAATTTTGTA [XGTACX_site5171] | 8.48 ± 0.44
TATACATTATCTTATGCATGCGCATCTGCATATAAA [TGCATGCA_site266] | 8.91 ± 0.33
AATAGAACAAATAAAACACACACATATATATATATA [CACACA_site8893] | 9.76 ± 0.37
AATATATTTCGAGATACACACATATATAAAAAAAAA [CACACA_site3398] | 8.91 ± 0.45
AAAAAAAAAAAAAAGACACACAATGTGAAATAATAA [CACACA_site804] | 9.12 ± 0.59
AAAATAAAATAAAATACACACATACATACATACAAA [CACACA_site5366] | 9.43 ± 0.26
CAATAAAGAGGGAATTGTACTTTAAATATCCCTCTT [XGTACX_site1991] | 8.6 ± 0.42
ATATATCACAATAAAATTTATAGAATTTTAAATAAG [TGCATGCA_negctrl_site437] | 8.29 ± 0.33
GTTCAATCGGGTGTTACTTCAAACAAGGAACAACAA [TGCATGCA_negctrl_site471] | 8.77 ± 0.52
ATAGTAAATATAAAAAGTACTGATTCTTAAATTGTT [XGTACX_site5972] | 8.74 ± 0.48
TATTTTATTGTTGTTATACACACCATATAAAATATT [CACACA_site1630] | 8.78 ± 0.4
ACTTGACACCAACACACACACATATATAAAAAAAAA [CACACA_site756] | 9.71 ± 0.47
TTTTAAAATTTTTTTTTTTTTTTTTTATGAACAAGT [GTGCAC_negctrl_site124] | 8.04 ± 0.47
TTTTAAAGAAAATATTTTATCATTATTTTTTGTACT [CACACA_negctrl_site1648] | 8.45 ± 0.54
AATATTTTAAATATTGCATGCAATGAAAAATGTAAA [TGCATGCA_site139] | 8.77 ± 0.26
TCTTATTTTTTTATATATACAAAGTTTTATATATAT [GTGCAC_negctrl_site314] | 8.69 ± 0.42
ATATAATATATGTAAGTGCGCTTATAAATAAAACGA [GTGCAC_site9841] | 9.18 ± 0.53
ATATATTGATATATGTGTACATAGCTTATTTCATTT [XGTACX_site1800] | 8.93 ± 0.47
TATATAGAAAACAAGGCATGCAAATAACAAATTGTG [TGCATGCA_site473] | 9.49 ± 0.35
AACAAAAATGAAAAAACACACATAACATATATAAAT [CACACA_site740] | 9.27 ± 0.41
TTTTTAATTATTTATATAACGATAATCCTTACATAA [TGCATGCA_negctrl_site180] | 8.23 ± 0.57
AAAAAAAAAAAAAAAGTGCACTGAAAATATATTGAA [GTGCAC_site9395] | 8.76 ± 0.53

Sequence | gcPBM binding intensity (ln)
ATAATATAAATAAAAACACACACAATCGTACATATA [CACACA_site9223] | 9.45 ± 0.22
CTAATCGTGCACAACTGTACATTTGTCAAGGGCAAT [XGTACX_site8662] | 9.04 ± 0.36
TTTTTAATATATATCACACATATATATTTTTAATTA [CACACA_site6099] | 8.49 ± 0.57
ATAAAAATCTTTAGTAGTACATTATAAAAAACTATT [XGTACX_site5531] | 8.52 ± 0.37
ATGTGAACATTCAATGCACACGATGTAATTATACAT [CACACA_site15] | 9.3 ± 0.28
ATATATATATATGCATGTACATATTTATCTTTATAT [XGTACX_site232] | 9.57 ± 0.44
AAAACATCAAAAATGTGTACATATATATATATATAT [XGTACX_site8884] | 9.66 ± 0.28
AACATATATTAGCTTACATGCAAAAAGTAAAAAAAT [TGCATGCA_site10] | 8.92 ± 0.42
AATTTAAAACGGAGATGTACATATATAAATATATAC [XGTACX_site3723] | 8.93 ± 0.47
CGGCTATTTCTATATACATGCATTTAAAAAAAAAAT [TGCATGCA_site354] | 8.32 ± 0.4
TATATATCTGTGAAAATACTTAAATTGTTATAAAAA [CACACA_negctrl_site1109] | 8.39 ± 0.45
AAAAAAAAAATGAGCACACATAAATAAAAACAAACA [CACACA_site1573] | 9.22 ± 0.48
ACCTATTTCAAACACACACACACACTAACAAACATA [CACACA_site8233] | 10 ± 0.13
AGTTATTTTAAATGTAGTACACAAAAGAAATATTAA [XGTACX_site4092] | 8.61 ± 0.49
CATAAATTAAAACACACACACACAAAAAAAAAAAAA [CACACA_site2262] | 9.84 ± 0.33
TATTTTCTCGTTTGCATGCACCTTATTTTATGTGGT [GTGCAC_site9470] | 9.39 ± 0.49
TAAAATTTGCGATGCACACAGAATAGCTAATATGAC [CACACA_site2995] | 9.16 ± 0.3
ATATTATATATATACACACACACATGCATGCACATA [CACACA_site7917] | 9.89 ± 0.22
AAATTCTGCATCGAGGTGCGCCATAAAAATTGTGGT | 8.81 ± 0.38
TACTAAAACCCATACACACACATATTTATAGTACCA [CACACA_site7484] | 9.57 ± 0.33
TATACAATATATATAACACACATATTTATATAAAAT [CACACA_site5061] | 8.97 ± 0.35
ACAAATCTATAAGAGTGTACGAACAGTAAAGGAATT [XGTACX_site2070] | 9.2 ± 0.56

Sequence | gcPBM binding intensity (ln)
AACATAAAAATTGAAGCACACACACTAATGAAATAC [CACACA_site8287] | 9.62 ± 0.22
CAGTTGGAAGGAAAGTGTACATAAAAAAAAATATAA [XGTACX_site8784] | 8.83 ± 0.59
AAAATACCATTTGAAACACACAAAAAAAAAAAAAAT [CACACA_site2981] | 9.04 ± 0.51
TTTAAAAATATATATTGTACATATATATATCTATGA [XGTACX_site3556] | 8.43 ± 0.52
ATAAAAATTAAAAGGAGTACTTAAATATTAAGATGG [XGTACX_site4815] | 8.53 ± 0.37
TACTATTTAAAATTTGAACACACATTATTTATTTTA [CACACA_site9020] | 8.58 ± 0.57
TTTATTTAAAAAATAAAAAAAAAAAAAAAAAAAAAA [CACACA_negctrl_site1670] | 8.05 ± 0.21
TTATGTGTATAGGTTTGTACATAAAATGATGTATAG [XGTACX_site1401] | 8.77 ± 0.44
TCATGGAATATTTAAAGTACAAAAAGTGTTCTTTAC [XGTACX_site715] | 8.36 ± 0.47
TAGTCATATATATATGTACACACATATATATATTTA [CACACA_site8413] | 8.88 ± 0.38
TATATATATATGTGTACACATGTCGCATTTTTTTAT [CACACA_site4648] | 9.57 ± 0.33
GATATTATAAAATAAAAATAAATCATTTCTATTCAT [CACACA_negctrl_site334] | 8.32 ± 0.49
ACATATATGGAGCTTATACACACTTTTATATTTTAA [CACACA_site3854] | 8.81 ± 0.47
TTTTAAATATGCCATACACACTACTCTATAATAAAT [CACACA_site6987] | 8.69 ± 0.4
TTATCATATAATTATTGTACTAAAAAAAAAGCGAGT [XGTACX_site3086] | 8.68 ± 0.4
TTATAATAAATATATAAAAAAAAAAAAAAAAAAAAA [CACACA_negctrl_site1639] | 8.19 ± 0.36
ATATATTATGGGTGTGCACACAATATTTATATGTTC [CACACA_site2270] | 9.51 ± 0.47
TTTTCTTATAAATGAAGTACAAAAAAAAAATATATA [XGTACX_site1352] | 8.25 ± 0.38
TGATAGCACCTTATATGTACATATAATATATTATTA [XGTACX_site837] | 8.91 ± 0.38
AAGGTATAATATATTTGTACATATACATTTTTGAAT [XGTACX_site6493] | 8.77 ± 0.38
TGAAAAATGTAATGCTCACACATATATATATATATA [CACACA_site5213] | 9.78 ± 0.35
GATTTTAATGGGTGTACACATTTATTTATATAAAGT [CACACA_site5317] | 8.74 ± 0.45
